These results are taken from the supplement of paper PMC11417369.

This is one part of the list.

In this assay the test system is PfAP2-HC AP2 domain (GST-tagged). Put plainly: gcPBM binding intensity (ln(normalized median fluorescence intensity)); higher = stronger DNA binding. In a few lines: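 Each value is the highest Masliner-normalised natural-log median intensity across replicate spots of either orientation of a probe. The probes were primer-extended double-stranded 36-bp intergenic genomic sequences on an Agilent 4 × 180k array, alongside negative controls, exposed for 1 h to GST-tagged P. falciparum DNA-binding domains expressed in E. coli. Bound protein was picked up with Alexa488 anti-GST antibody and scanned at 488 nm.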
In the case of “CATCTGGTATCTAATAGTACATATATATAATATCTT [XGTACX_site2774]”, the “gcPBM binding intensity (ln)” value stood at 9.67.

In the case of “AACAAAAGAAAAAAATATATATATTCGTCCTATTTT [CACACA_negctrl_site444]”, the “gcPBM binding intensity (ln)” value worked out at 9.62. Take “TTTCAACTTTTGTCATGTACACATAATTTTATTGCA [XGTACX_site6701]”: the “gcPBM binding intensity (ln)” value turned out to be 9.86. In the case of “ATTTATTTATCAAATATTATCTTAAAAAAAAAAGAA [CACACA_negctrl_site1345]”, the “gcPBM binding intensity (ln)” value is 9.18. As for “TAATTAAATACATTAACACACACACTAATATATACA [CACACA_site8938]”, the figure is 10.3; as for “TTCCTGTTAATTACAACACACAATTTTTATTTTATG [CACACA_site779]”, 10.1. As for “TACCAAAAAAAAAAAAATAAAAATAAAAAAAAAAAT [CACACA_negctrl_site1714]”, the figure is 9.47; as for “AAAATAAAAATAAAAGCACACATAAATATATATATA [CACACA_site8409]”, 9.94. With “CTTTATTATAAGATTACACACATGTCTTATAATTTA [CACACA_site5715]” the figure was 9.98. In the case of “TAAAAGTTTTTATACATACACACCTATAAATTAAGT [CACACA_site2446]”, the “gcPBM binding intensity (ln)” value is 9.78. For the sequence “TAACTATTATAAAAATGTACAAATGAAAATATTTTT [XGTACX_site1438]”, the “gcPBM binding intensity (ln)” value stood at 9.59. With “ATTTTTTTGGTAATTTGTACATAATATATACATAAT [XGTACX_site3742]” the figure was 9.68; with “AAAATTAAAACCTACACACACATTTAAAAAAAAAAA [CACACA_site3068]”, 10.1.

Regarding “TTTTTTTTTTTTACATGTACTTATTTTAAATATAAA [XGTACX_site805]”, the “gcPBM binding intensity (ln)” value is 9.71.

On to “TATATTTATTTAAAAACATGCATTTTTTTTTTCCGT [TGCATGCA_site44]”, for which the “gcPBM binding intensity (ln)” value was 9.53. With “TATATTATAGGTTGTGTACACATATTATATAGTACT [CACACA_site4583]” the figure was 9.75.

On to “ATATATTTATAGACTTGTACATATATATACGATATA [XGTACX_site8890]”, for which the “gcPBM binding intensity (ln)” value amounted to 9.59. Turning to “AAGGCATGACTATCTGCACACATAAAAATAAGAAAT [CACACA_site8180]”, the “gcPBM binding intensity (ln)” value is 9.92. With “AATTTTTTTTTTTTGTGTCCTCATAATTCTTCATTC [XGTACX_site5042]” the figure was 9.59; with “TAAACATAATAATATACACACATATATTGATATATA [CACACA_site2144]”, 9.76; with “TAAAAAAAAATATAATGTACGTATAAATATATATTA [XGTACX_site5085]”, 9.66. On to “ATACACATAACATATATATATATATATATATATATC [CACACA_negctrl_site278]”, for which the “gcPBM binding intensity (ln)” value stood at 9.93. With “TATATATATATAAACGCATGTAATTTATACACACAT [TGCATGCA_site946]” the figure was 9.81.

“ATCTTTCCTTTTGCATGTACATATGGAAATACTTTT [XGTACX_site6995]”: the “gcPBM binding intensity (ln)” value stood at 9.83. As for ATAATTAAGTTATGTGTGCACTGTTAAAAATAAATG, the figure is 9.97. With “TTTTTTATTTTTTACATATTTAGCTCATATTTATAT [GTGCAC_negctrl_site491]” the figure was 9.83; with “TTTTATGATATTTACACACAAACGTGAGATAGCTCA [CACACA_site2311]”, 9.6.

Regarding “AATATAATATCTATAATATAAAAAAAACAAAAAAAA [CACACA_negctrl_site875]”, the “gcPBM binding intensity (ln)” value turned out to be 9.67.

Regarding “AAAATATGTTAATATTGTACTTAAATAAAAAAAATA [XGTACX_site7152]”, the “gcPBM binding intensity (ln)” value is 9.56. As for “ATTCTTAAAATAAAATGTACGAAAAAAAAAAAAAAA [XGTACX_site1657]”, the figure is 9.32. With “TTTAAAAAATTATATTCACACACATACACATATATA [CACACA_site8076]” the figure was 10.1.

Take “ATAAATCGATAAAATATATGCTACATGAATAAATAA [XGTACX_negctrl_site604]”: the “gcPBM binding intensity (ln)” value worked out at 9.75. On to “ATATTTTTATATAATGAACACACATATTATATCATT [CACACA_site8446]”, for which the “gcPBM binding intensity (ln)” value was 9.81.

As to “TAAAAGGATACATATACACACATATATATATATATA [CACACA_site2791]”, the “gcPBM binding intensity (ln)” value turned out to be 9.85. For the sequence “TTCTTCAACAAAAAAATAAAAATAAAATAATAAAAA [GTGCAC_negctrl_site619]”, the “gcPBM binding intensity (ln)” value came out at 9.41. Regarding “TATTTTACATAAAAGAAAAAAAAAAAAAAAAAAAAA [CACACA_negctrl_site1460]”, the “gcPBM binding intensity (ln)” value was determined as 8.78.

Consider “TTTATAATAAAAAATACATGCAGTTATATATAATAA [TGCATGCA_site654]”, for which the “gcPBM binding intensity (ln)” value is 9.56. With “ATATTGAAAATTTGAAGTACATCTAAATATATTATT [XGTACX_site7817]” the figure was 9.37. For “TATATATAAATAAACACACACAAATATAATAAAAAA [CACACA_site3526]”, the “gcPBM binding intensity (ln)” value was determined as 10.9. As for “ATCCGTGTCTGAAATACACACATGACAATGTGAATG [CACACA_site6556]”, the figure is 9.7. With “ATAATGTGTTTGGTATTCTTGATAGATAGTTTTGTG [CACACA_negctrl_site68]” the figure was 9.82; with “CCTTCCTTGAATTTTACATGCAAAAAATTATAAAAC [TGCATGCA_site663]”, 9.34; with “TATATATTATATATTTGTACATATATATAAAAACTT [XGTACX_site449]”, 9.47. As for “TTTTTTCAATATTATATCCAAAAATATTTGTAAATA [TGCATGCA_negctrl_site596]”, the figure is 9.31; as for “TTATTAAAATATACATTTGAAAGTAATCTTATTTAA [XGTACX_negctrl_site431]”, 9.22; as for “ATTTTTATTTTTTTTGTGCACATTTTCATTTTCTAT [GTGCAC_site9580]”, 9.94. On to “TATAAAAAAATAATAAAATAATAAAATATATAAATA [TGCATGCA_negctrl_site394]”, for which the “gcPBM binding intensity (ln)” value amounted to 9.6.

Regarding “TTTTAAAAGGTAAAATGTACATATATAATATATACA [XGTACX_site1222]”, the “gcPBM binding intensity (ln)” value came out at 9.56. With “ATTCTATTATCCTTTGCACACAAAATAAATGAAAAA [CACACA_site3030]” the figure was 9.75.

For the sequence “TAATACTTAGAGAAAAGTACGTATGAACTTATGTAA [XGTACX_site5504]”, the “gcPBM binding intensity (ln)” value is 9.59. With “TTTTTTTTTTTTTTTTGTACTTATAAAATAACATGT [XGTACX_site134]” the figure was 9.03; with “TATTTAAATACTGACGCATGCATAAGGAGTAATAGT [TGCATGCA_site465]”, 9.82; with “AAACATTTATGAAGGTGTACAAAAATGAATTAAAAA [XGTACX_site7035]”, 9.88.

For “AGTCCTTACACATATATTAAATATGTGTATATATAT [XGTACX_negctrl_site336]”, the “gcPBM binding intensity (ln)” value is 9.98. With “TTTTGTTTAGTGTATTGTACAATATATCTTTATTTT [XGTACX_site5163]” the figure was 9.83; with “TATTAATACGGACACACACACACACTAGATAAAATA [CACACA_site4295]”, 10.8.
